Laboratory results reported in the supplement of paper PMC11417369.
± gives the standard deviation of the averaged measurements. The list shows a part of the results.

Tested on: PfAP2-I AP2 domain 3 (GST-tagged)
Experiment: gcPBM binding intensity (ln(normalized median fluorescence intensity)); higher = stronger DNA binding
Summary of the method: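 Binding intensity is defined as the maximum Masliner-normalised natural-log median intensity across replicate spots for either probe orientation. It was measured on an Agilent 4 × 180k array of primer-extended double-stranded 36-bp intergenic genomic probes and negative controls, to which GST-tagged P. falciparum DNA-binding domains made in E. coli were applied for 1 h in 1× PBS with 1% milk, 0.2 mg/ml BSA, 0.5% salmon testes DNA and 0.03% Triton X-100. Detection was by Alexa488 anti-GST antibody and scanning at 488 nm.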

Sequence | gcPBM binding intensity (ln)
TATAAGAAAATAATGTGTACTAAATAATAAATGCAT [XGTACX_site1204] | 8.35 ± 0.46
CCACATGAGATGATTACACACATATAAATATTTACA [CACACA_site6222] | 7.84 ± 0.54
TAATGACTGAAAAATTGTACATATGTATATATGTAT [XGTACX_site2415] | 7.92 ± 0.7
ATTCTATTATAATATTCACACACTAACGTAAATCAT [CACACA_site2750] | 8.05 ± 0.33
TATACATACATACATACACACACACCGATATATATA [CACACA_site7896] | 8.16 ± 0.52
ATAATTTTCCATATTTGTACATATTTTTTTCCCTTG [XGTACX_site8146] | 8.01 ± 0.76
AATTTAAATTAGAATTGTACTAGAAAAGGAATATAT [XGTACX_site6162] | 8.12 ± 0.44
AATATAAATAAAAACACACACAATGGTACAGATATA [CACACA_site5930] | 8.02 ± 0.47
AATTATATAATCTTATAACATAATATAATAACATTT [CACACA_negctrl_site187] | 7.41 ± 0.45
CATACATACGGACACACACACATATATATATATATA [CACACA_site5598] | 9.26 ± 0.42
ATAATGTTTCTTTCAACACACAAAAAATGAACACAT [CACACA_site1552] | 8.03 ± 0.66
AAAAAAGAAAAAAGGACACACATAAATATACTCACG [CACACA_site2904] | 7.8 ± 0.57
AAAAAAAAAAAATAGACCTCCTAAGCAAAAGAAAAA [GTGCAC_negctrl_site634] | 7.82 ± 0.15
TATATAAGCGCATGCACACGCAAAGGTATATAAATA [CACACA_site622] | 8.03 ± 0.56
TAAAAAATATTATATACACACAGTATAAAAAAAAAT [CACACA_site4012] | 7.66 ± 0.62
TTATCCTATACAAGGGAAAAATAAAATAAAATAAAT [TGCATGCA_negctrl_site272] | 7.53 ± 0.68
AGTGTCATATAAAATTGTACTTTTTTTTTTTTCTTT [XGTACX_site5651] | 8.42 ± 0.31
ATATACATATTATAATGTACATATTTTAATAACCTT [XGTACX_site7617] | 7.72 ± 0.43
ATTGATTATTTTCTAGTGCATAAAATAATTTTTTTT | 10.5 ± 0.51
TAAGAAAGACAAAAAAAATGAAAAGAAAAAAAATGA [CACACA_negctrl_site1469] | 7.51 ± 0.65
AAATGTTGAAAAATATGTACATATTATATATATTAT [XGTACX_site1165] | 7.85 ± 0.2
ATTTAGAAAAAATATACACACAGCCTAAACATGCAT [CACACA_site4067] | 7.7 ± 0.67
AATATAAGCAAATACACACACACATATATATATATA [CACACA_site3805] | 9.34 ± 0.25

Sequence | gcPBM binding intensity (ln)
TATTTATTTGTTTAAGGTACAGAACAAATTTTTATT [XGTACX_site7414] | 7.75 ± 0.43
ATATTTATTATTATATGTACGTAACATCTTTATAAA [XGTACX_site7016] | 8.13 ± 0.32
CATAAATACATACATACACACATATATATATATATA [CACACA_site2106] | 9.23 ± 0.42
AAATGTTCTTAAAAATGAATAATATATATATATATA [CACACA_negctrl_site796] | 9.06 ± 0.2
ATTATATATATGTGCACACAAAAGATATATATATAT [CACACA_site5205] | 10.2 ± 0.13
ATATTTATTTGTTAGTGTACATACATATATATATAT [XGTACX_site1347] | 9.47 ± 0.4
AAATAATTTACTTAATGTACATATATATATATATAT [XGTACX_site8594] | 9.42 ± 0.24
TTTTAATTTATTTATGCACACATATATAATTACACA [CACACA_site8126] | 9.8 ± 0.35
AAAAATAAACAATATATAGTTATATATATATATATA [TGCATGCA_negctrl_site82] | 9.29 ± 0.69
AAGCACAAAAAATACACACACAAAAAATAAAAAAAG [CACACA_site1840] | 7.87 ± 0.47
TATATATATCTGTACACACACACATATAAATAAATA [CACACA_site4405] | 8.37 ± 0.23
GAGAAATGGGGACACACACACATATTATATATATAT [CACACA_site4943] | 9.2 ± 0.085
ATATAAATATATGTATGTACGCATGTATGTATCTAT [XGTACX_site3290] | 8.16 ± 0.27
TATATGCATAATAACTGTACACAAATTGGGGTTGAT [XGTACX_site459] | 8.37 ± 0.36
ATGTATGTTTGTTATGCACACAAATGCATCTTATTT [CACACA_site8861] | 10.12 ± 0.021
ATAATGAACAATATTATATATAAAATATAATTTATA [GTGCAC_negctrl_site564] | 7.34 ± 0.34
ATTATGTATACATAAACACACATATATATAAAAAAA [CACACA_site262] | 7.92 ± 0.64
AAATTAAGTATATATTGTACACATAATATGATTGTA [XGTACX_site3083] | 7.56 ± 0.35
TTATTTTCATATAGGTGTACATAAAAATATTCTTAT [XGTACX_site8861] | 8.21 ± 0.23
TAAGTTTATTGAAATTGTACAAACATAAATGTAAAA [XGTACX_site162] | 7.86 ± 0.61
TTATATTTTTTTTTTTCACACACATTTATATTGTAT [CACACA_site9025] | 7.88 ± 0.76
TATACTAAGAAGTATTTACACACCAACAAGGCGAAA [CACACA_site8963] | 7.7 ± 0.78
ATGTTCATTATATGCACACATATATATAAATGTAAT [CACACA_site2908] | 9.34 ± 0.3

Sequence | gcPBM binding intensity (ln)
TATCATAAAAAATATACACACAAAGGATATATATAT [CACACA_site1571] | 8.855 ± 0.021
TGTGCCTATAAATTAACACACAGAAATATATAGAGA [CACACA_site818] | 9.11 ± 0.66
TTATTCTGACAGAATTGTACTAATGTCTTTAAAAAA [XGTACX_site1256] | 7.5 ± 0.47
TATTTGTTTGTTCGGGTGCTTACATATATTCTTATA [GTGCAC_site9972] | 9.04 ± 0.16
TTAATTAGAAATCATACACACATATAAATAAATATA [CACACA_site6225] | 7.5 ± 0.45
AATTATATACATAAGTGTACATAATATATAAACATA [XGTACX_site793] | 7.72 ± 0.28
TTTTCAATTAATAATACACACATGTATTTATTATTA [CACACA_site5774] | 7.83 ± 0.34
TGTTGTAAATTAAAGACATGCACGTGAGAAAATATA [TGCATGCA_site285] | 9.54 ± 0.54
TATATATATTTTATATGTACGTATGGAACAATATGA [XGTACX_site8167] | 8.16 ± 0.13
TTTTCTATGCTAAACACACTCATTGTTACAAGTTTT [CACACA_site5531] | 8.01 ± 0.71
TTATTTATTTTTTATACACACAATTATCATTTTAAG [CACACA_site22] | 7.96 ± 0.48
CTTATGTGCATACCTACACACTTACAGATATATATA [CACACA_site5622] | 8.51 ± 0.24
TTCAAATATTTTATTTGTACATAAAAAAGAAAGTTA [XGTACX_site8287] | 7.87 ± 0.057
TAGGAAGAATTACTGTGTACTAAAATATTAAAAAGT [XGTACX_site4909] | 8.22 ± 0.67
ATAAATGAAAAAAAGCGTACATATAAAAAAATATAT [XGTACX_site5063] | 8.02 ± 0.33
TGTAAATAATATAATAGTACGCATATTTTTATTGAA [XGTACX_site284] | 7.87 ± 0.17
ACTTACCCATTTATTACACACATAAAGGAAAATTTT [CACACA_site4873] | 8.46 ± 0.59
TGTTTATGTATCAATTGTACAAAAAAAAAAAAAAAA [XGTACX_site1590] | 8.16 ± 0.83
TTCAAAAAAATGTATACACACATAAGTATAATATAA [CACACA_site3758] | 7.61 ± 0.62
GATTTTTTTTTTTTTTCACACACTAATAATATTATC [CACACA_site464] | 7.95 ± 0.72
ATTATTAAAAAGATGTAAATAAATGAATATATGCTT [CACACA_negctrl_site539] | 7.79 ± 0.61
TATTAAGAATTTACATGTACTTGTTAAATAAGAAAA [XGTACX_site4466] | 7.82 ± 0.53
TTCTATATATTTTAATGTACATATATGATTATTCTT [XGTACX_site8294] | 7.95 ± 0.37

Sequence | gcPBM binding intensity (ln)
ATATAGTATAATAAAAGTACATTTTGATTTTTTCTC [XGTACX_site1797] | 7.62 ± 0.5
TAAATAATATCTATCACACACGCATATATACATATA [CACACA_site2622] | 7.56 ± 0.55
GTCGCATTTTATACAAGTACACATGAATTATACAAC [XGTACX_site2200] | 8.505 ± 0.064
ATTTATAATCAGGGTTGTACACTTATAGAATTTTTA [XGTACX_site4175] | 7.72 ± 0.46
ATATAAATATATGGAAGTACACAAAAAAATTAAAAA [XGTACX_site8624] | 8.02 ± 0.28
CATAAGAAAATAAAAACATGCACATAAGAAATATAC [TGCATGCA_site842] | 8.41 ± 0.87
AATCTTCATACCAACACATGCACAAAAGAAATAAAA [TGCATGCA_site563] | 8.78 ± 0.83
TATATTTATACATATTGTACATTTTATACTTTTACA [XGTACX_site3884] | 7.76 ± 0.52
ACCTAAGAACTATTTACACACATATACAAAATATAT [CACACA_site2459] | 8.04 ± 0.42
ATTGTTCTATGATTTGTACACACTTTTTTTTAAAAT [CACACA_site2825] | 8.43 ± 0.46
CATATAAAAATATGCACACACAGGAATACAAACATA [CACACA_site684] | 8.91 ± 0.11
AATAAAAAACTACAATATACAAAATTATTAAATCAA [GTGCAC_negctrl_site703] | 7.32 ± 0.39
AAACGTACATAATACACACACATGTATCCATATAAA [CACACA_site5173] | 8.28 ± 0.28
AAGTTTATCACAGCCACGCACACATAATATATGTAT [CACACA_site3670] | 7.86 ± 0.72
TTTAAAAATGCTACATGTACAAAATAAAATATAATA [XGTACX_site2905] | 7.93 ± 0.61
ATATATATATATAAAAGTACATGCTTATATATATAT [XGTACX_site3786] | 9.48 ± 0.26
TACAAAATATATATGACACACATAAAAAAAAGTATA [CACACA_site1373] | 7.74 ± 0.45
TATATAAACATACATACACACATACAATAAGTAAAA [CACACA_site5118] | 7.97 ± 0.49
CACCCACTAATAAACACACACATATATATATATATA [CACACA_site389] | 9.46 ± 0.34
ATTTTTTTTATTCAATGTACTTTTTTTTATATATAT [XGTACX_site4978] | 8.15 ± 0.26
